Data taken from PubChem BioAssay AID504832 (National Center for Advancing Translational Sciences (NCATS), 2011).
Among all 310,000 compounds or so, about 18,000 (5.8%) were called active. The shares of active, inactive and inconclusive entries below differ from those in the screen. Calls follow the shape of the dose curve; as a rule, active = well fitted inhibition curve with a large enough effect; inconclusive = small, poorly fitted or top-dose-only effect, or another doubt; inactive = no such curve, though single readings can be large or run the other way. Potencies of inconclusive entries are left out as doubtful fits.

Assay: Primary qHTS for delayed death inhibitors of the malarial parasite plastid, 48 hour incubation
Conditions: P. falciparum luciferase growth in erythrocytes; series mostly up to 28.7 µM; activity change, negative = inhibition: at the top concentration
Method in brief: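 Erythrocytes infected with P. falciparum carrying an integrated firefly luciferase reporter (2% hematocrit, 0.1% parasitemia final) were exposed to compounds in RPMI 1640 with 0.5% Albumax at 37 C, 5% CO2. Growth inhibition was scored as reduced luminescence.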
% is scaled to controls: 0 for no effect and ±100 for the full control effect; potency is read from the fitted curve at half-maximal effect; tags tell the direction and shape of the fitted curve.

Which “activity change, negative = inhibition” value does the source give for `COC(=O)Cn1c(=O)oc2ccc(C)cc21` here?
The value was inactive: 28.7%.

Which Potency does the source give for `CSc1ccc(-c2c(C#N)c(N)nc3c2c(C)nn3-c2ccccc2)cc1` here?
The Potency was active: 1.47 µM.

Which “activity change, negative = inhibition” value does the source give for `Cc1ccc(C)c(C(=O)C(C)OC(=O)CN2C(=O)NC3(CC(C)CC(C)(C)C3)C2=O)c1` (centres undefined) here?
Its value is inactive: -0.345%.

Which Potency does the source give for `CC(C)(C)OC(=O)N1CCC[C@H]1c1nnc(SCc2ccccc2F)o1` here?
The Potency was inconclusive [inhibitor, single point].

Which Potency does the source give for `COC(=O)C1=C(c2ccc(F)cc2OCc2ccccc2)C[C@@H]2CC[C@H]1N2C(=O)NCc1ccco1` here?
Its Potency is inconclusive [inhibitor, single point].

Which Potency does the source give for `CC(C)(C)c1cccc(P(=O)(c2ccccc2)c2ccccc2)c1O` here?
Its Potency is inconclusive [inhibitor, single point].

For `COc1ccc(S(=O)(=O)N2CCCC(C(=O)Nc3cccc(C(C)=O)c3)C2)cc1` (centres undefined), which Potency is on record?
The Potency was inconclusive [inhibitor, partial curve, poor fit].

Which “activity change, negative = inhibition” value does the source give for `CC(C)N(C(=O)CSc1nnc(-c2ccc3c(c2)OCO3)n1C)C(C)C` here?
The value was inactive: 3.24%.

For `COc1ccc(C(C(=O)NCC2CCCO2)N(Cc2ccco2)C(=O)c2snc(C(N)=O)c2N)cc1OC` (centres undefined), which Potency is on record?
The Potency was inconclusive [inhibitor, single point].

With `COCC(C)n1c(C)cc(C(=O)COC(=O)c2ccc3c(c2)NC(=O)CS3)c1C` (centres undefined) as the compound, how does the Potency read?
Its Potency is active: 10.4 µM.

With `Cc1cc(=O)oc2cc(OCC(=O)N3CCc4ccccc4C3)ccc12` as the compound, how does the Potency read?
Its Potency is inconclusive [inhibitor, single point].

With `CCC(CC)C(=O)Nc1cc(Cl)ccc1C` as the compound, how does the “activity change, negative = inhibition” value read?
Its value is inactive: -18.8%.

Which “activity change, negative = inhibition” value does the source give for `CCCCNC(=O)Cn1nc(Cc2ccncc2)c2ccccc2c1=O` here?
Its value is inactive: 36.4%.

For `COc1ccc(-c2c(C)nc(N)nc2-c2ccc(OCc3ccc(C)cc3)cc2O)cc1OC`, which Potency is on record?
Its Potency is inconclusive [inhibitor, single point].

With `CCOC(=O)c1c(C)[nH]c(C)c1C(=O)CSc1nnc(-c2ccco2)n1Cc1ccccc1` as the compound, how does the Potency read?
The Potency was active: 7.38 µM.

For `CC(C)N(C(=O)CN1CCN(S(=O)(=O)c2ccc(Br)s2)CC1)C(C)C`, which Potency is on record?
The Potency was inconclusive [inhibitor, single point].

Which Potency does the source give for `CC(C)=N/N=C1\NC(=O)C(C)S1` (centres undefined) here?
The Potency was active: 4.65 µM.

With `CCOc1ccccc1/C=C/C(=O)NCC(=O)N1CCC(N(C)C2CCCCC2C)CC1` (centres undefined) as the compound, how does the Potency read?
Its Potency is inconclusive [inhibitor, partial curve].

For `Cc1ccc(/C=N/n2c(-c3cccnc3)n[nH]c2=S)s1`, which “activity change, negative = inhibition” value is on record?
The value was inactive: 12.6%.

Which Potency does the source give for `CCOC(=O)C1=C(C)N(C)C(C)=C(C(=O)OCC)C1c1ccc(Cl)cc1` here?
Its Potency is inconclusive [inhibitor, partial curve, poor fit].

For `CC(OC(=O)c1ccccc1C(=O)N(C)c1ccccc1)C(=O)Nc1ccc(C(N)=O)cc1` (centres undefined), which “activity change, negative = inhibition” value is on record?
The value was inactive: 2.04%.

For `CCCNC(=O)N1[C@H]2CC[C@@H]1C(C(=O)OC)=C(c1cccc(C#N)c1)C2`, which “activity change, negative = inhibition” value is on record?
The value was inactive: -14.8%.

With `Cc1ccc(C(CNC(=O)Nc2ccc(Cl)cc2)N2CCN(C)CC2)cc1` (centres undefined) as the compound, how does the Potency read?
Its Potency is inconclusive [inhibitor, single point].

With `Cc1ccc(-c2csc3ncnc(Nc4ccc(N5CCOCC5)cc4)c23)cc1` as the compound, how does the Potency read?
Its Potency is inconclusive [inhibitor, partial curve].

For `Cc1ccc(C(=O)Oc2cc(C)n(C)c(=O)c2)cc1`, which “activity change, negative = inhibition” value is on record?
The value was inactive: -1.46%.

Which Potency does the source give for `Cc1csc(NC(=O)CSc2nnc(CCNC(=O)c3cccs3)n2C)n1` here?
The Potency was inconclusive [inhibitor, single point].

For `Cc1ccc(S(=O)(=O)c2c(N)n(CC3CCOC3)c3nc4ccccc4nc23)cc1` (centres undefined), which Potency is on record?
Its Potency is inconclusive [inhibitor, partial curve, poor fit].

For `Cc1c(C)n2c(SCC(=O)Nc3cccc4ccccc34)nnc2[nH]c1=O`, which Potency is on record?
Its Potency is active: 11.7 µM.

With `CCOc1nc(-c2ccccc2)c2cc(Br)ccc2n1` as the compound, how does the “activity change, negative = inhibition” value read?
Its value is inactive: 12.9%.

For `CCCc1c(OCCCOc2ccc(OCC(=O)O)cc2)ccc(C(C)=O)c1O`, which “activity change, negative = inhibition” value is on record?
Its value is inactive: 0.454%.

For `CN(CCCNC(=O)CCc1cn(C)c2ccccc12)C1CCCCC1`, which “activity change, negative = inhibition” value is on record?
Its value is inactive: -9.83%.

Which Potency does the source give for `CCOC(=O)CC1(NC(=O)C2CCC(=O)N(Cc3ccccc3OC)C2)CCCCC1` (centres undefined) here?
Its Potency is inconclusive [inhibitor, single point].

For `Cc1ncsc1CCOC(=O)C1C2CC3CC(C2)CC1C3` (centres undefined), which Potency is on record?
Its Potency is inconclusive [inhibitor, single point].

With `O=C(Nc1nc(N2C(=O)c3ccccc3C2=O)n(-c2ccccc2)n1)c1ccc(Cl)cc1` as the compound, how does the “activity change, negative = inhibition” value read?
The value was inactive: 125%.

For `COc1ccc(CNCCC(c2ccc(OC(C)C)cc2)C(C)C)cc1OC` (centres undefined), which Potency is on record?
The Potency was inconclusive [inhibitor, single point].

Which Potency does the source give for `Cc1ccc(-n2nc(C)c3c(-c4cccs4)c(C#N)c(N)nc32)cc1` here?
Its Potency is inconclusive [inhibitor, partial curve].

For `CC1CN(c2oc(-c3ccco3)nc2S(=O)(=O)c2ccccc2)CC(C)O1` (centres undefined), which “activity change, negative = inhibition” value is on record?
Its value is inactive: 6.16%.

Which Potency does the source give for `CCN(CC)CCn1c(=N)n(CC(O)c2ccco2)c2ccccc21` (centres undefined) here?
The Potency was inconclusive [inhibitor, single point].

Which “activity change, negative = inhibition” value does the source give for `O=C(O)CCCC(=O)Nc1ccc2c(c1)oc1ccccc12` here?
The value was inactive: 7.66%.

Which Potency does the source give for `O=S(=O)(c1ccc(Cl)cc1)N1CCC2(CC1)CO2` here?
Its Potency is inconclusive [inhibitor, partial curve].

Which Potency does the source give for `CCN(CC(=O)Nc1cccc(C(C)=O)c1)S(=O)(=O)c1ccccc1` here?
Its Potency is inconclusive [inhibitor, full curve, poor fit].

With `COc1ccc(CNC(=O)c2nn(C)c3c2CS(=O)(=O)c2ccccc2-3)cc1` as the compound, how does the Potency read?
The Potency was inconclusive [inhibitor, single point].

Which Potency does the source give for `CCN1C(=O)[C@H]2[C@@H](c3ccc(-c4ccccc4)cc3)N[C@@](CC(C)C)(C(=O)OC)[C@H]2C1=O` here?
The Potency was active: 8.28 µM.

With `Cc1nn(-c2ccccc2)c(Cl)c1/C=C1\C(=O)N(C)C(=S)N1C` as the compound, how does the Potency read?
Its Potency is inconclusive [inhibitor, single point].

With `COc1cc(OC)c2c(OC)cccc2n1` as the compound, how does the “activity change, negative = inhibition” value read?
The value was inactive: 1.06%.

For `COc1cc(C2NC(=O)NC(C)=C2C(=O)OC2CCCCC2)cc(Cl)c1O` (centres undefined), which “activity change, negative = inhibition” value is on record?
Its value is inactive: -29.7%.

Which Potency does the source give for `O=C(Nc1ccnn1C1CCN(Cc2ccccc2)CC1)c1ccccc1Cl` here?
The Potency was inconclusive [inhibitor, single point].

Which Potency does the source give for `O=C(CSc1nc2ccccc2[nH]1)NCc1ccc(F)cc1` here?
Its Potency is inconclusive [inhibitor, partial curve].

For `COc1cccc(Oc2cn[nH]c2-c2ccc(OC)cc2O)c1`, which Potency is on record?
Its Potency is active: 8.28 µM.

Which Potency does the source give for `CCOC(=O)c1sc2nc(C)nc(SCC(=O)N(CC)C3CCS(=O)(=O)C3)c2c1C` (centres undefined) here?
The Potency was inconclusive [inhibitor, full curve, poor fit].

For `CCC(O)C1CCN(Cc2cn(-c3ccc(OC)cc3)nc2-c2cccc(F)c2)CC1` (centres undefined), which Potency is on record?
The Potency was inconclusive [inhibitor, partial curve, poor fit].

Which Potency does the source give for `O=C(O)c1ccccc1SC1CC(=O)N(c2cccc3ccccc23)C1=O` (centres undefined) here?
The Potency was active: 2.08 µM.

Which Potency does the source give for `COc1ccc(C(=O)/C=C2/C(=O)Nc3ccccc32)cc1OC` here?
Its Potency is inconclusive [inhibitor, partial curve, poor fit].

With `c1ccc(SCc2cc(-c3ccccc3)no2)cc1` as the compound, how does the “activity change, negative = inhibition” value read?
The value was inactive: 237%.

For `CC(=O)c1ccc(S(=O)(=O)N(C)CC(=O)Nc2cc(C)on2)cc1`, which “activity change, negative = inhibition” value is on record?
The value was inactive: 2.19%.

For `Cc1ccc(C(c2nnnn2CC2CCCO2)N2CCN(C(=O)c3ccco3)CC2)cc1` (centres undefined), which Potency is on record?
The Potency was inconclusive [inhibitor, partial curve, poor fit].

With `CCC(C)NC(=O)Cc1ccc(-c2ccccc2)cc1` (centres undefined) as the compound, how does the “activity change, negative = inhibition” value read?
Its value is inactive: 0%.

Which “activity change, negative = inhibition” value does the source give for `Cc1cc(C)n(CC(C)O)c(=O)c1C#N` (centres undefined) here?
Its value is inactive: 5.45%.

For `CCC(=O)N1CCN(c2ccccc2NC(=S)NC(=O)c2ccco2)CC1`, which Potency is on record?
The Potency was inconclusive [inhibitor, single point].

For `S=C(Nc1ccccc1)N(Cc1ccccc1)Cc1ccncc1`, which Potency is on record?
Its Potency is inconclusive [inhibitor, partial curve].

Which “activity change, negative = inhibition” value does the source give for `CC(C)CN1CCN(Cc2cccc3cccnc23)CC1CCO` (centres undefined) here?
Its value is inactive: 23.1%.

Which Potency does the source give for `COc1ccc(Nc2nc(NCc3ccco3)nc(N3CCOCC3)n2)cc1` here?
Its Potency is inconclusive [inhibitor, single point].

Which “activity change, negative = inhibition” value does the source give for `COc1cccc(CCc2nnc(CCC(=O)N3CCCC3c3nccs3)o2)c1` (centres undefined) here?
Its value is inactive: -2.86%.

Which Potency does the source give for `CCOc1cc(CNCCSc2nnnn2C)cc(Br)c1OCc1ccccc1F` here?
The Potency was inconclusive [inhibitor, single point].

With `CCN=C1S/C(=C\c2ccc(Sc3ccc(Cl)cc3)o2)C(=O)N1CC` as the compound, how does the Potency read?
Its Potency is inconclusive [inhibitor, partial curve, poor fit].

For `CCC(=O)Nc1ccc(NC(=O)CSc2nnnn2-c2ccc(OC)cc2)cc1`, which Potency is on record?
Its Potency is inconclusive [inhibitor, single point].

With `CCOc1ccc2c(c1)[N+](C)(C)C(C)(C)C=C2C` as the compound, how does the Potency read?
The Potency was active: 1.17 µM.

With `CSc1nc(C)c(CCOC(=O)c2cccc(C)c2)c(=O)[nH]1` as the compound, how does the Potency read?
Its Potency is inconclusive [inhibitor, single point].

Which “activity change, negative = inhibition” value does the source give for `COc1ccc(C(=O)n2nnc3ccccc32)cc1Br` here?
The value was inactive: -8.41%.

Which Potency does the source give for `Cc1cc2ncn(/N=C/c3cccnc3)c2cc1C` here?
The Potency was active: 14.7 µM.

Which Potency does the source give for `COc1ccc(CCn2c(C)nc3ccccc3c2=O)cc1OC` here?
The Potency was inconclusive [inhibitor, single point].

With `Cc1cc(C)nc(N2CCC(C(=O)NCc3ccccc3)CC2)n1` as the compound, how does the “activity change, negative = inhibition” value read?
The value was inactive: 22%.

With `CCOc1ccc2oc(C(=O)OCC(=O)NC3CCCC3)c(C)c2c1` as the compound, how does the “activity change, negative = inhibition” value read?
Its value is inactive: -18.2%.

For `Cc1ccc2cc(CN(c3cccc(C)c3C)S(=O)(=O)c3ccccc3)c(=O)[nH]c2c1`, which Potency is on record?
The Potency was inconclusive [inhibitor, partial curve].
